Legend:
[1] = system: wheat brown rust fungi (Puccinia recondita); experiment: Test Example E: wheat brown rust, spray treatment of wheat plants; format: in vivo; details: spray treatment of wheat plants; control value=100{1-(n/3)}
[2] = system: cabbage Alternaria sooty spot fungi (Alternaia brassicicola); experiment: Test Example C: cabbage Alternaria sooty spot, spray treatment of cabbage plants; format: in vivo; details: for Test C control value class (cabbage Alternaria sooty spot): spray treatment of cabbage plants, control value=100{1-(n/3)}; for Test C control value: cabbage Alternaria sooty spot, spray treatment
Excerpt: [Test Example C] Cabbage Alternaria Sooty Spot
Test plants (cabbage variety: Shikidori) were cultivated until the cotyledons extended after the sowing of seeds.
<Control Value> Control value=100{1−(n/3)}

[3] = system: barley powdery mildew fungi (Blumeria graminis f. sp. hordei); experiment: Test Example D: barley powdery mildew, spray treatment of barley plants; details: for Test D control value class (barley powdery mildew): spray treatment of barley plants, control value=100{1-(n/3)}; for Test D control value: barley powdery mildew, spray treatment
[4] = system: grape downy mildew fungus (Plasmopara viticola); experiment: Test Example G: grape downy mildew, spray treatment of grape plants; details: 250 ppm spray; for Test G control value class (grape downy mildew): 2.5 ml/pot, grape Neomuscat, 7 to 10 days from inoculation; for Test G control value: grape downy mildew, 7 to 10 days after inoculation
[5] = system: gray mold fungi (Botrytis cinerea); experiment: Test Example B: tomato gray mold, spray treatment of tomato plants; details: for Test B control value class (tomato gray mold): spray treatment of tomato plants, control value=100{1-(n/3)}; for Test B control value: tomato gray mold, spray treatment

Structure (SMILES) | Test E control value class (wheat brown rust) [1] | Test C control value class (cabbage Alternaria sooty spot) [2] | Test D control value class (barley powdery mildew) [3] | Test G control value class (grape downy mildew) [4] | Test B control value class (tomato gray mold) [5] | Test C control value [2] | Test D control value [3] | Test G control value [4] | Test B control value [5]
CCCn1cc(Cl)c(=O)c(Cl)c1-c1c(F)cc(F)cc1F [Compound 6] | H (H shows the control value of more than 50%) | H (H shows the control value of more than 50%) | L (L shows the control value of 50% or less) | L (L shows the control value of 50% or less) | H (H shows the control value of more than 50%) |  |  |  | 
CCCn1cc(Cl)c(=O)c(Br)c1-c1c(F)cc(F)cc1F [Compound 7] | H (H shows the control value of more than 50%) | H (H shows the control value of more than 50%) | L (L shows the control value of 50% or less) | H (H shows the control value of more than 50%) | H (H shows the control value of more than 50%) |  |  |  | 
O=c1c(Br)cn(-c2ccccc2)c(-c2c(F)cc(F)cc2F)c1Br [Compound 8] | H (H shows the control value of more than 50%) | H (H shows the control value of more than 50%) | L (L shows the control value of 50% or less) | L (L shows the control value of 50% or less) | H (H shows the control value of more than 50%) |  |  |  | 
CC(C)n1cc(Cl)c(=O)c(Br)c1-c1c(F)cc(F)cc1F [Compound 11] | H (H shows the control value of more than 50%) | H (H shows the control value of more than 50%) | H (H shows the control value of more than 50%) | L (L shows the control value of 50% or less) | L (L shows the control value of 50% or less) |  |  |  | 
CC(C)n1cc(Br)c(=O)c(Br)c1-c1c(F)cc(F)cc1F [Compound 12] | H (H shows the control value of more than 50%) | H (H shows the control value of more than 50%) | L (L shows the control value of 50% or less) | L (L shows the control value of 50% or less) | H (H shows the control value of more than 50%) |  |  |  | 
CC(C)n1cc(Br)c(=O)c(Cl)c1-c1c(F)cc(F)cc1F [Compound 13] | H (H shows the control value of more than 50%) | H (H shows the control value of more than 50%) | H (H shows the control value of more than 50%) | H (H shows the control value of more than 50%) | L (L shows the control value of 50% or less) |  |  |  | 
O=c1c(Cl)cn(-c2ccccc2)c(-c2c(F)cc(F)cc2F)c1Cl [Compound 14] | H (H shows the control value of more than 50%) | H (H shows the control value of more than 50%) | H (H shows the control value of more than 50%) | H (H shows the control value of more than 50%) | H (H shows the control value of more than 50%) |  |  |  | 
COc1cc(F)c(-c2c(Cl)c(=O)c(Cl)cn2-c2ccccc2)c(F)c1 [Compound 16] | H (H shows the control value of more than 50%) | H (H shows the control value of more than 50%) | L (L shows the control value of 50% or less) | L (L shows the control value of 50% or less) | H (H shows the control value of more than 50%) |  |  |  | 
COc1cc(F)c(-c2c(Cl)c(=O)c(Br)cn2C(C)C)c(F)c1 [Compound 19] | H (H shows the control value of more than 50%) | H (H shows the control value of more than 50%) | L (L shows the control value of 50% or less) | H (H shows the control value of more than 50%) | H (H shows the control value of more than 50%) |  |  |  | 
O=c1c(Br)cn(-c2ccccc2F)c(-c2c(F)cc(F)cc2F)c1Cl [Compound 20] | H (H shows the control value of more than 50%) | H (H shows the control value of more than 50%) | L (L shows the control value of 50% or less) | L (L shows the control value of 50% or less) | H (H shows the control value of more than 50%) |  |  |  | 
COc1cc(F)c(-c2c(Cl)c(=O)c(Br)cn2-c2ccccc2F)c(F)c1 [Compound 21] | H (H shows the control value of more than 50%) | H (H shows the control value of more than 50%) | L (L shows the control value of 50% or less) | L (L shows the control value of 50% or less) | H (H shows the control value of more than 50%) |  |  |  | 
O=c1c(Br)cn(-c2ccccc2F)c(-c2c(F)cc(F)cc2F)c1Br [Compound 22] | H (H shows the control value of more than 50%) | H (H shows the control value of more than 50%) | L (L shows the control value of 50% or less) | L (L shows the control value of 50% or less) | H (H shows the control value of more than 50%) |  |  |  | 
COc1cc(F)c(-c2c(Br)c(=O)c(Br)cn2-c2ccccc2F)c(F)c1 [Compound 23] | H (H shows the control value of more than 50%) | H (H shows the control value of more than 50%) | L (L shows the control value of 50% or less) | L (L shows the control value of 50% or less) | H (H shows the control value of more than 50%) |  |  |  | 
O=c1c(Cl)cn(-c2ccccc2F)c(-c2c(F)cc(F)cc2F)c1Cl [Compound 24] | H (H shows the control value of more than 50%) | H (H shows the control value of more than 50%) | L (L shows the control value of 50% or less) | H (H shows the control value of more than 50%) | H (H shows the control value of more than 50%) |  |  |  | 
O=c1c(Cl)cn(C2CCCCC2)c(-c2c(F)cc(F)cc2F)c1Br [Compound 25] | H (H shows the control value of more than 50%) | H (H shows the control value of more than 50%) | L (L shows the control value of 50% or less) | L (L shows the control value of 50% or less) | H (H shows the control value of more than 50%) |  |  |  | 
O=c1c(Cl)cn(C2CCCCC2)c(-c2c(F)cc(F)cc2F)c1Cl [Compound 26] | H (H shows the control value of more than 50%) | H (H shows the control value of more than 50%) | L (L shows the control value of 50% or less) | L (L shows the control value of 50% or less) | H (H shows the control value of more than 50%) |  |  |  | 
O=c1c(Br)cn(-c2ccccc2)c(-c2ccc(F)cc2F)c1Cl [Compound 469] |  |  |  |  |  | H (H shows the control value of more than 50%) | L (L shows the control value of 50% or less) | L (L shows the control value of 50% or less) | H (H shows the control value of more than 50%)
Cc1ccccc1-n1cc(C)c(=O)c(C)c1-c1c(F)cccc1F [Compound 500] |  |  |  |  |  | H (H shows the control value of more than 50%) | H (H shows the control value of more than 50%) | L (L shows the control value of 50% or less) | H (H shows the control value of more than 50%)
CCc1c(-c2c(F)cc(F)cc2F)n(-c2cccc(OC)c2C)cc(Br)c1=O [Compound 513] |  |  |  |  |  | H (H shows the control value of more than 50%) | H (H shows the control value of more than 50%) | H (H shows the control value of more than 50%) | H (H shows the control value of more than 50%)
CCc1c(-c2ccc(F)cc2Cl)n(-c2ccccc2)cc(Br)c1=O [Compound 621] |  |  |  |  |  | H (H shows the control value of more than 50%) | H (H shows the control value of more than 50%) | L (L shows the control value of 50% or less) | H (H shows the control value of more than 50%)

— patent publication US11000038B2, “Pyridone compounds and agricultural and horticultural fungicides containing the same as active ingredients” (priority 2017, dated 2021)
